# Publication PMC6212790
# Some of the results follow. At the low end of the ranking the order means little.
# Target: T1, GST-Rok (full length) (UniProt O34857)
# T1 sequence: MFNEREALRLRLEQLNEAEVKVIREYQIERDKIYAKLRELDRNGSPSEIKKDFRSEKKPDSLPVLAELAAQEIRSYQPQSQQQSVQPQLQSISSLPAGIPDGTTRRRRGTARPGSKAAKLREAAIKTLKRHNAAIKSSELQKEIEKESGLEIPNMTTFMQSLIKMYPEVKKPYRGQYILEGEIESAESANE
# Test: protein binding microarray;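 further: rank score from −0.5 (least bound) to 0.5 (best bound)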
# Conditions: Rok is a gene silencer of Bacillus subtilis; high values mean tight binding; most listed sequences are background and not binding sites; double strand, one strand shown
row,Sequence,binding signal [E-score]
1,ATCTGAAG,-0.0856
2,CAGTCTAC,0.147
3,CCAGAGCG,-0.277
4,GCGAACCA,-0.268
5,CAGGCCGA,-0.26
6,GCAACAGA,-0.00447
7,GCTGATTA,-0.127
8,ACTTGCCT,0.0161
9,GCTAAAGA,-0.0511
10,AGCCATTG,-0.119
11,ATGCAGGC,0.0328
12,CCAATCTA,0.283
13,ACCCGGCT,-0.0892
14,CGCACAAG,-0.123
15,CCTCCTCC,-0.368
16,AAATGACG,-0.0296
17,AACTTCTC,0.0759
18,ATATCTCG,0.193
19,AATTTACG,0.292
20,CTCTCCAC,-0.204
21,ACAACTTA,0.23
22,TGAAACAA,-0.052
23,CGAGGATA,-0.0453
24,CAGTATGC,-0.0921
25,CTGTACTC,-0.00698

row,Sequence,binding signal [E-score]
1,TTCCACAA,-0.0794
2,AAAGCCTT,-0.296
3,AAAATGCC,0.144
4,CCATAAGA,0.0104
5,GATTACGA,0.138
6,GACCAGTC,-0.178
7,CTTGAGGA,-0.00408
8,CTTGTGTC,-0.113
9,ATCTTATA,0.287
10,AAAAGGCA,0.0153
11,GAGACAGA,-0.0774
12,CAGAAAAA,-0.228
13,CCTATGGC,-0.262
14,CACTTGGG,-0.176
15,AGGCGCGG,-0.322
16,AGTCTAGA,0.0654
17,GCTACCCC,-0.106
18,CCGATATC,-0.0456
19,AGATGCAC,-0.0764
20,AGAGCTAC,-0.0299
21,GTCCCAGA,-0.25
22,CACTGGCA,-0.307
23,ATGCACGC,-0.0755
24,ATTATCCA,0.109
25,ATGCTGGA,-0.0341

row,Sequence,binding signal [E-score]
1,CGCCCATA,-0.363
2,CCCGTCAA,-0.325
3,AATATTAA,0.334
4,CAACTCGC,-0.00406
5,GACCCCTC,-0.427
6,AGTGTGCA,0.037
7,AAACTCTT,0.188
8,GTAAGCAA,0.0243
9,TCTGACCA,-0.132
10,AGCTCTCG,-0.0291
11,CGTAATGA,0.0955
12,GCGGCAAC,-0.197
13,TAGTGCCA,0.0249
14,ATGTACTA,0.321
15,GTTCATGA,0.101
16,CGCCTGAC,-0.28
17,AAAAGTAT,0.205
18,GTACCTTA,0.193
19,AGGAAGTA,0.0966
20,ATTTGAGG,0.0564
21,CTGGCACA,-0.24
22,AAAAGCGC,-0.0281
23,AGAGAGCT,-0.0184
24,AAAACTAC,0.453
25,ACAATCAT,0.17

row,Sequence,binding signal [E-score]
1,ACAGAGCG,-0.144
2,CGAGACTC,-0.171
3,ACATCAAA,-0.118
4,ATCCATGA,-0.0395
5,ACCTCATA,0.0129
6,GTGCACAA,-0.0651
7,GCTGTGAA,0.0753
8,AGGCGATC,-0.161
9,AGGAGGAG,-0.394
10,CTACTGTC,0.207
11,ACGATTCT,0.209
12,GGCTACAC,-0.287
13,ACGAAGGC,-0.23
14,TAACTTCA,0.121
15,ATCTCTGC,-0.135
16,ATAACGGG,0.00871
17,CACACGTG,-0.021
18,ACTTTCAA,0.155
19,GGAAACAC,-0.146
20,TACGTCAA,0.0487
21,CAGTTGTA,0.132
22,GTGAACAA,0.052
23,AACTTACA,0.18
24,GATCTTGC,0.197
25,TGATTGAA,0.0042

row,Sequence,binding signal [E-score]
1,AGATAGAA,0.26
2,ATCTCGTC,0.0825
3,CGTACTGC,0.0418
4,ACTGAAGT,0.0422
5,CGGTTCAC,-0.057
6,TCACGACA,-0.103
7,CACTCTAC,-0.103
8,CTCGTACC,-0.103
9,ATGCAGCA,-0.126
10,CACTCGTC,0.00924
11,TAGTCTGA,0.148
12,CCGTGTAG,-0.0932
13,ACATCTAT,0.309
14,CAGGCGCC,-0.165
15,AACAGCAA,0.0713
16,TCGATAGA,0.285
17,CGGTGATA,0.0653
18,ATGACCGG,-0.00748
19,GGAGACCC,-0.332
20,ACCTTGAA,-0.224
21,CTGATCGC,-0.0832
22,GGTACGAC,-0.0975
23,ACGGCCCG,-0.242
24,ATGGATAG,-0.028
25,TATCAGAA,0.119

row,Sequence,binding signal [E-score]
1,ATCAATAA,0.19
2,AATCTTTA,0.13
3,ACGCTGGC,-0.0836
4,ACGCAATC,0.0805
5,CACTTGAA,-0.159
6,CTCAATAC,0.0481
7,AACACTCG,0.0111
8,GCATCTAC,0.0875
9,AATCATAG,0.185
10,AAGTCGAA,-0.0505
11,ACGAATTA,0.289
12,AAATCCAG,0.138
13,CAAAGCAG,-0.0726
14,CCTCCCAC,-0.258
15,AATAGTGG,0.135
16,GTGGTAGA,0.435
17,CCGGGTGC,-0.275
18,AATTGCAC,0.139
19,CGACATAA,0.121
20,CAAAAGCG,-0.0644
21,ATAATGCC,0.117
22,ACCGGTAA,0.255
23,TATGCAAA,0.217
24,CCGGGAAC,-0.39
25,ATAAACCA,0.119

row,Sequence,binding signal [E-score]
1,CTACACAG,0.0881
2,AGGTCAAA,0.141
3,AGGGTTCA,-0.0816
4,AATACTGT,0.171
5,CTGACCAG,-0.127
6,CATGAGCA,0.13
7,GATATTGA,0.251
8,AAGCCCTG,-0.382
9,CCTCACAC,-0.0382
10,GTGCCTGA,-0.0608
11,ATACCAAT,0.243
12,ACCAACCG,-0.00471
13,CCACGGTC,-0.0823
14,GCGGACGC,-0.272
15,AGGCACTC,-0.335
16,ATTTTACG,0.219
17,GGTCCGGA,-0.2
18,CGCATGAC,-0.03
19,TCGGCAAA,-0.151
20,CTTTCGGC,-0.277
21,ATTAATTC,0.248
22,GTCTGTGA,-0.183
23,AAGGGGGG,-0.446
24,CACCTTGG,-0.248
25,CAATATTG,0.161

row,Sequence,binding signal [E-score]
1,ATTGCGGA,0.0951
2,CAGATCAG,-0.214
3,AAGGTATA,0.152
4,AGTACGCG,-0.108
5,ATGTCCAG,0.025
6,CCCCGTAC,-0.167
7,ATTGCTTG,0.0689
8,CGTGTGCA,0.115
9,GGATGCAA,-0.1
10,CCGCCACG,-0.291
11,ACGTATCG,0.0464
12,TAACTGCA,0.255
13,CCTGTAAG,-0.159
14,CAGGTGCA,-0.198
15,GAATTAAC,0.0101
16,CTGTGGTA,0.0132
17,CCCAGGCA,-0.18
18,CGAAGGCA,-0.211
19,CTTACCGC,0.0909
20,CCACCTGG,-0.205
21,GTGCTGGA,-0.207
22,CAATACGG,0.0271
23,AGTGCACA,0.106
24,CCATACAC,0.104
25,CTTCTCTC,0.0122

row,Sequence,binding signal [E-score]
1,CAGAACTG,0.0194
2,TGTAGAAA,0.396
3,GCAGCCTA,-0.175
4,ACTAGAAC,0.296
5,CACGCGGG,-0.285
6,ACCTTGTC,-0.226
7,ATCTAATG,0.241
8,CAGGCACG,-0.303
9,GCAATGAA,-0.00172
10,AATCCTCC,-0.151
11,AGAGGAAA,-0.149
12,CGGCCGGA,-0.228
13,GCACGCTA,0.00273
14,CAGGACCG,-0.306
15,AAAACGCC,-0.318
16,CACGACGA,0.114
17,CTGCGCAC,-0.154
18,AATGGGGC,-0.31
19,AAGAAGAC,-0.162
20,CAAACAGG,-0.0677
21,GTATTACA,0.169
22,CGCAATCA,0.0654
23,GTGTTTCA,-0.149
24,AAGGAGTA,-0.163
25,GCAATGCC,-0.158

row,Sequence,binding signal [E-score]
1,TACAAATA,0.375
2,AATCGCAA,0.06
3,AACTCCCG,-0.168
4,TAAGCCAA,0.0909
5,ACATATAT,0.378
6,GCCGTCGC,-0.297
7,AGGCGGAA,-0.116
8,CATGTACG,0.157
9,CGCACAAC,-0.0646
10,GCCGTCCC,-0.415
11,GACAATTA,0.127
12,CGACACAC,0.0834
13,CTTTCAAA,-0.0687
14,GCCCGTCA,-0.248
15,CTGCCCAG,-0.241
16,GAACCGCC,-0.165
17,GAAGTGCA,0.107
18,GTTGGAGA,0.0244
19,CGGCACTC,-0.275
20,GCCGCTCC,-0.326
21,AAAACAGC,-0.00257
22,AGGGTACG,-0.168
23,TAGGATAA,0.0932
24,CGGGTTAC,-0.0819
25,GGTGGAAA,-0.0827

row,Sequence,binding signal [E-score]
1,AAGAAGAT,-0.000369
2,CACGGAAA,-0.0897
3,AATCCATT,0.054
4,CATTCGTC,-0.0954
5,AGACCAAG,-0.163
6,CTCTGGTA,0.0688
7,GTCACAAC,-0.0655
8,CCTCCCTA,-0.272
9,AAGAGAGA,-0.129
10,CCAAGTAC,0.0928
11,ATTACCCA,0.242
12,AGCCGTGG,-0.223
13,CGTCACAG,0.031
14,CTTACACC,-0.0193
15,AGATTACG,0.17
16,GACTACGA,0.079
17,GGGAATGA,-0.0881
18,ACAACGAT,0.0956
19,ACTCCCAA,-0.0633
20,AGCTCGGC,-0.0222
21,AACATGTA,0.285
22,AGTGACCG,-0.0525
23,CGGCCCAC,-0.282
24,ATTACGGG,0.0739
25,ACCCTTTG,-0.155

row,Sequence,binding signal [E-score]
1,CCACCACA,0.0179
2,TAGCTACA,0.37
3,AGTTGTAA,0.249
4,GAATTCAA,0.122
5,AACGCTCG,-0.212
6,CGACCGGC,-0.221
7,GGTTTCCA,-0.2
8,CCCAAGAC,-0.297
9,ATTCGGGG,-0.212
10,CAATGGGG,-0.242
11,CGGCCAGC,-0.377
12,TACGATGA,0.123
13,CACCCTAG,-0.105
14,GGGCTCGA,-0.233
15,AGTATGAA,0.204
16,AGACAACC,-0.264
17,CGAAAAGC,0.0853
18,CATATAGA,0.133
19,AAGCTATT,0.142
20,CGCCGATC,-0.248
21,CGGCGCGA,-0.193
22,CTTGTGGA,-0.189
23,AAGGGCGG,-0.307
24,AGTAGATC,0.324
25,CCCATAAC,0.0958

row,Sequence,binding signal [E-score]
1,CGACGTCC,-0.376
2,GAATCGGC,0.00616
3,GAAGTGTC,-0.145
4,ACGAATAG,0.0209
5,ATTGGATA,0.145
6,AGACAGAC,-0.167
7,AGCCATTA,-0.205
8,ACAACGTC,-0.0449
9,ATTAGTTG,0.334
10,AGCACACG,0.0226
11,AGAGGGAG,-0.319
12,AGCCGTAC,0.15
13,GGAGCATA,0.00366
14,ACTGCTTC,-0.182
15,CCCAAAGG,-0.36
16,CTCTTTGA,-0.07
17,AAATTTGC,0.127
18,AGGCCGAC,-0.391
19,CTAATCAC,-0.0345
20,TCCATCAA,-0.0208
21,ACCCTTTC,-0.255
22,GTTTGCCA,-0.0833
23,AACGTGTG,0.125
24,AAAGGCAC,-0.127
25,CTGTGGGC,-0.155

row,Sequence,binding signal [E-score]
1,ATAAGTTA,0.204
2,AAAACTAT,0.433
3,AGTGTTTC,-0.0146
4,AGGGCACC,-0.205
5,ATACTTCA,0.138
6,CCTAACCC,-0.3
7,AGGTCCTC,-0.0286
8,GAGGTGGA,-0.242
9,GACGGAAC,-0.259
10,CCGACGTA,0.045
11,CAGGCGTA,-0.0529
12,CTGCATAC,0.193
13,ACGGCAGC,-0.265
14,AAGCGACA,-0.0731
15,CTGAGGAA,-0.0322
16,ATTGCGTG,0.0201
17,AACCACTA,0.15
18,AGAGTCAA,-0.252
19,AAGGGTCA,-0.233
